Test results: the supplement of paper PMC7826260
Some of the results follow. Cleavage of a single-stranded DNA pool by Rep nickase domains was read by sequencing at 3 µM enzyme and 37 °C for 1 h; the strands have 90 letters, of which the middle is given. Uncut reads are compared with the no-enzyme pool on a log2 scale; strong cutting gives strongly negative numbers. There is no active / inactive call. Shares of all reads are compared; values above 0 arise when much of the pool is cut.

Legend:
Test in all cases: uncleaved DNA left, log2 of reads against the no-enzyme library (log2 ratio); higher = less cleavage (more negative = more Rep cleavage of the k-mer); sequences stand for … in CTCGTCCG…ACCGGAGA
[1] = tested on: T1, Rep nickase domain of Muscovy duck circovirus
T1 sequence (residues 1-111, tag not shown): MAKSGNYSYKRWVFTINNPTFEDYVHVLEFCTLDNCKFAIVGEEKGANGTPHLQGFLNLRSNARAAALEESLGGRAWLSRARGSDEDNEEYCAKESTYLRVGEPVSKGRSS
Description: (§1)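 A pool of 90-nt single-stranded DNAs with seven random bases just before the constant AC of the nick site (name = the seven bases) was cut by 3 µM recombinant His6-SUMO-tagged Rep nickase domain (300 nM DNA, 50 mM HEPES pH 8.0, 50 mM NaCl, 1 mM MnCl2, 1 h, 37 °C, three replicates). Uncut DNA was amplified and sequenced.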

[2] = tested on: T2, Rep nickase domain of banana bunchy top virus
T2 sequence (residues 1-94, tag not shown): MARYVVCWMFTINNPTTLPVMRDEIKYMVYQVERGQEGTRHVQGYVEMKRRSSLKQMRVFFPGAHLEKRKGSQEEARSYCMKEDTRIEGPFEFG
Description: as §1

[3] = tested on: T3, Rep nickase domain of cabbage leaf curl virus
T3 sequence (residues 1-116, tag not shown): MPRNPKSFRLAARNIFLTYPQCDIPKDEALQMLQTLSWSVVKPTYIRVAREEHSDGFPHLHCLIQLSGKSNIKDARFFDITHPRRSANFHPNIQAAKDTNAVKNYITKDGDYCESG
Description: as §1

[4] = tested on: T4, Rep nickase domain of chickpea chlorotic dwarf virus
T4 sequence (residues 1-124, tag not shown): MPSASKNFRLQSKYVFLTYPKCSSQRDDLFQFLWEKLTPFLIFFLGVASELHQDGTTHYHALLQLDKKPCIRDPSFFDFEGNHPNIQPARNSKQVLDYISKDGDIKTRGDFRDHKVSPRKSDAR
Description: as §1

[5] = tested on: T5, Rep nickase domain of faba bean necrotic yellows virus
T5 sequence (residues 1-98, tag not shown): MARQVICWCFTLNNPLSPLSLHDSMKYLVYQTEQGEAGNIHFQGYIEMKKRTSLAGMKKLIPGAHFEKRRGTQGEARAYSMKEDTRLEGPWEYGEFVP
Description: as §1

[6] = tested on: T6, Rep nickase domain of maize striate mosaic virus
T6 sequence (residues 1-117, tag not shown): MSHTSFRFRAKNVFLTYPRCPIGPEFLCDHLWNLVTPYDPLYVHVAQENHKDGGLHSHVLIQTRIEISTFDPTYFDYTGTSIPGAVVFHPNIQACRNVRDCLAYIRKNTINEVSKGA
Description: as §1

[7] = tested on: T7, Rep nickase domain of porcine circovirus 2
T7 sequence (residues 2-116, tag not shown): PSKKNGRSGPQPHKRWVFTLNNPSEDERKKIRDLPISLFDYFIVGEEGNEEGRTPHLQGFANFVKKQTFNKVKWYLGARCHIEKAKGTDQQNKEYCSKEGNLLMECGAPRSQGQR
Description: as §1

[8] = tested on: T8, Rep nickase domain of tomato golden mosaic virus
T8 sequence (residues 1-124, tag not shown): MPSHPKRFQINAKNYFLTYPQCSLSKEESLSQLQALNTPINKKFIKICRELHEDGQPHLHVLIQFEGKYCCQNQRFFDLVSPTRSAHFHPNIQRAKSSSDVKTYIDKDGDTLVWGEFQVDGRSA
Description: as §1

[9] = tested on: T9, Rep nickase domain of tomato yellow leaf curl virus
T9 sequence (residues 1-136, tag not shown): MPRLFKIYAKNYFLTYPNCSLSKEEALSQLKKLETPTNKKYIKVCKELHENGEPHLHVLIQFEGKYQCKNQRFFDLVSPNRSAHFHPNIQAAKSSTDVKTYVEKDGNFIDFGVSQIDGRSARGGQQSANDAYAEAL
Description: as §1

[10] = tested on: T10, Rep nickase domain of wheat dwarf virus
T10 sequence (residues 1-137, tag not shown): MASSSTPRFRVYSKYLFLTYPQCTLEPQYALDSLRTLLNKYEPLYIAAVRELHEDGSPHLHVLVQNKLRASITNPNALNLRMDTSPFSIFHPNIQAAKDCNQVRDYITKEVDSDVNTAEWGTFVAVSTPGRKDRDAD
Description: as §1

Sequence | uncleaved DNA left (log2) [1] | uncleaved DNA left (log2) [2] | uncleaved DNA left (log2) [3] | uncleaved DNA left (log2) [4] | uncleaved DNA left (log2) [5] | uncleaved DNA left (log2) [6] | uncleaved DNA left (log2) [7] | uncleaved DNA left (log2) [8] | uncleaved DNA left (log2) [9] | uncleaved DNA left (log2) [10]
CATCCTG | -0.253 | -0.0681 | -0.362 | -0.211 | -0.171 | -0.555 | -0.111 | -0.0238 | -0.0423 | -0.0716
AAGGTAC | 0.00856 | 0.0396 | -0.066 | 0.448 | 0.0802 | -0.159 | 0.145 | 0.0263 | -0.199 | 0.0538
ATCCTAA | 0.142 | 0.0542 | -0.0205 | -0.239 | 0.0569 | -0.711 | 0.0242 | 0.2 | 0.18 | -0.00669
CCGCCTC | -0.187 | -0.182 | 0.0585 | -0.0989 | -0.307 | 0.0401 | -0.0244 | -0.199 | -0.243 | -0.153
CGTAACT | 0.00467 | -0.109 | -0.253 | -2.09 | -0.0172 | -0.122 | -0.511 | -0.0716 | -0.0809 | 0.0639
GAAAATC | 0.0409 | -0.0146 | 0.157 | 0.351 | -0.0105 | 0.636 | 0.0729 | 0.0431 | 0.0252 | 0.0578
CCAGCCA | -0.0448 | 0.0526 | 0.00573 | -0.991 | 0.111 | -0.642 | 0.0127 | 0.123 | -0.082 | 0.103
CCCTCTA | -0.0977 | -0.012 | 0.0406 | -1.3 | 0.125 | -0.289 | -0.271 | -0.0248 | 0.0364 | -0.00991
GGCGTTT | -0.0941 | -0.108 | 0.247 | 0.447 | -0.118 | 1.16 | -0.139 | -0.0521 | -0.136 | -0.0316
CGCAAAG | 0.0579 | 0.0883 | -0.554 | -0.344 | 0.12 | -0.905 | 0.188 | 0.0672 | 0.12 | 0.14
TAGACTC | 0.113 | 0.00566 | 0.0402 | 0.367 | 0.0475 | 0.992 | -0.511 | -0.0638 | 0.0111 | 0.0683
GCATCGA | -0.00403 | -0.0371 | -0.343 | -0.424 | 0.0381 | -0.826 | 0.0887 | 0.0829 | 0.0347 | -0.0557
ATGGCAT | 0.0418 | 0.0888 | 0.319 | 1.61 | -0.012 | 1.74 | 0.241 | 0.179 | -0.0296 | 0.0721
TGGTTCA | -0.0164 | 0.0567 | 0.3 | 0.0961 | -0.0851 | 0.807 | -0.126 | 0.00224 | 0.0873 | 0.0934
CCTTAAA | 0.0451 | 0.00818 | -0.0269 | -0.294 | 0.141 | -0.72 | 0.0214 | -0.0467 | 0.0734 | 0.113
